Test results: the supplement of paper PMC8728848
Some of the results follow.

Assays:
Experiment in all cases: glycan array binding signal (z-score within array); higher = stronger binding
Conditions in all cases: glycan notation: IUPAC condensed, linker removed
[1] = biological target: Neu5Ac(a2-3)Gal(b1-3)[Fuc(a1-4)]GlcNAc
Outline: (§1)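 Glycan array binding is given as a within-array Z-score, which can be read as non-binding when negative. The arrays, 3228 of them, came from the Consortium for Functional Glycomics database and were retained only where the protein sequence was available. Z-scores were averaged across arrays of the same protein sequence at different concentrations or buffers and across linkers.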

[2] = biological target: Neu5Ac(a2-3)Gal(b1-3)[Fuc(a1-4)]GlcNAc(b1-3)Gal(b1-3)[Fuc(a1-4)]GlcNAc
Outline: as §1

[3] = biological target: Neu5Ac(a2-3)Gal(b1-3)[Fuc(a1-4)]GlcNAc(b1-3)Gal(b1-4)[Fuc(a1-3)]GlcNAc
Outline: as §1

[4] = biological target: Neu5Ac(a2-3)Gal(b1-3)[GlcNAc(b1-6)]GalNAc
Outline: as §1

[5] = biological target: Neu5Ac(a2-3)Gal(b1-3)[Neu5Ac(a2-6)]GalNAc
Outline: as §1

[6] = biological target: Neu5Ac(a2-3)Gal(b1-3)[Neu5Ac(a2-6)]GlcNAc(b1-3)[Fuc(a1-3)[Gal(b1-4)]GlcNAc(b1-6)]Gal(b1-4)Glc
Outline: as §1

[7] = biological target: Neu5Ac(a2-3)Gal(b1-3)]Neu5Ac(a2-3)Gal(b1-4)]GlcNAc
Outline: as §1

Neu5Ac(a2-3)Gal(b1-4)Glc = biological target: Neu5Ac(a2-3)Gal(b1-4)Glc
Outline: as §1

[8] = biological target: Neu5Ac(a2-3)Gal(b1-4)GlcNAc
Outline: as §1

[9] = biological target: Neu5Ac(a2-3)Gal(b1-4)GlcNAc(b1-2)Man
Outline: as §1

[10] = biological target: Neu5Ac(a2-3)Gal(b1-4)GlcNAc(b1-2)Man(a1-3)[GlcNAc(b1-4)][Neu5Ac(a2-3)Gal(b1-4)GlcNAc(b1-2)Man(a1-6)]Man(b1-4)GlcNAc(b1-4)GlcNAc
Outline: as §1

[11] = biological target: Neu5Ac(a2-3)Gal(b1-4)GlcNAc(b1-2)Man(a1-3)[Neu5Ac(a2-3)Gal(b1-4)GlcNAc(b1-2)Man(a1-6)]Man(b1-4)GlcNAc(b1-4)GlcNAc
Outline: as §1

[12] = biological target: Neu5Ac(a2-3)Gal(b1-4)GlcNAc(b1-2)Man(a1-3)[Neu5Ac(a2-3)Gal(b1-4)GlcNAc(b1-2)Man(a1-6)]Man(b1-4)GlcNAc(b1-4)[Fuc(a1-6)]GlcNAc
Outline: as §1

[13] = biological target: Neu5Ac(a2-3)Gal(b1-4)GlcNAc(b1-2)Man(a1-3)[Neu5Ac(a2-6)Gal(b1-4)GlcNAc(b1-2)Man(a1-6)]Man(b1-4)GlcNAc(b1-4)GlcNAc
Outline: as §1

[14] = biological target: Neu5Ac(a2-3)Gal(b1-4)GlcNAc(b1-2)[Neu5Ac(a2-3)Gal(b1-4)GlcNAc(b1-4)]Man(a1-3)[GlcNAc(b1-4)][Neu5Ac(a2-3)Gal(b1-4)GlcNAc(b1-2)[Neu5Ac(a2-3)Gal(b1-4)GlcNAc(b1-6)]Man(a1-6)]Man(b1-4)GlcNAc(b1-4)GlcNAc
Outline: as §1

[15] = biological target: Neu5Ac(a2-3)Gal(b1-4)GlcNAc(b1-2)[Neu5Ac(a2-3)Gal(b1-4)GlcNAc(b1-4)]Man(a1-3)[GlcNAc(b1-4)][Neu5Ac(a2-3)Gal(b1-4)GlcNAc(b1-4)Man(a1-6)]Man(b1-4)GlcNAc(b1-4)GlcNAc
Outline: as §1

[16] = biological target: Neu5Ac(a2-3)Gal(b1-4)GlcNAc(b1-2)[Neu5Ac(a2-3)Gal(b1-4)GlcNAc(b1-6)]Man(a1-6)[Neu5Ac(a2-3)Gal(b1-4)GlcNAc(b1-2)Man(a1-3)]Man(b1-4)GlcNAc(b1-4)GlcNAc
Outline: as §1

[17] = biological target: Neu5Ac(a2-3)Gal(b1-4)GlcNAc(b1-2)[Neu5Ac(a2-3)Gal(b1-4)GlcNAc(b1-6)]Man(a1-6)[Neu5Ac(a2-3)Gal(b1-4)GlcNAc(b1-2)Man(a1-3)][GlcNAc(b1-4)]Man(b1-4)GlcNAc(b1-4)GlcNAc
Outline: as §1

[18] = biological target: Neu5Ac(a2-3)Gal(b1-4)GlcNAc(b1-3)Gal
Outline: as §1

[19] = biological target: Neu5Ac(a2-3)Gal(b1-4)GlcNAc(b1-3)Gal(b1-3)GlcNAc
Outline: as §1

[20] = biological target: Neu5Ac(a2-3)Gal(b1-4)GlcNAc(b1-3)Gal(b1-4)GlcNAc
Outline: as §1

[21] = biological target: Neu5Ac(a2-3)Gal(b1-4)GlcNAc(b1-3)Gal(b1-4)GlcNAc(b1-2)Man(a1-3)[Neu5Ac(a2-3)Gal(b1-4)GlcNAc(b1-3)Gal(b1-4)GlcNAc(b1-2)Man(a1-6)]Man(b1-4)GlcNAc(b1-4)GlcNAc
Outline: as §1

[22] = biological target: Neu5Ac(a2-3)Gal(b1-4)GlcNAc(b1-3)Gal(b1-4)GlcNAc(b1-3)Gal(b1-4)GlcNAc
Outline: as §1

[23] = biological target: Neu5Ac(a2-3)Gal(b1-4)GlcNAc(b1-3)Gal(b1-4)GlcNAc(b1-3)Gal(b1-4)GlcNAc(b1-2)Man(a1-3)[Neu5Ac(a2-3)Gal(b1-4)GlcNAc(b1-3)Gal(b1-4)GlcNAc(b1-3)Gal(b1-4)GlcNAc(b1-2)Man(a1-6)]GalNAc
Outline: as §1

[24] = biological target: Neu5Ac(a2-3)Gal(b1-4)GlcNAc(b1-3)Gal(b1-4)GlcNAc(b1-3)GalNAc
Outline: as §1

[25] = biological target: Neu5Ac(a2-3)Gal(b1-4)GlcNAc(b1-3)Gal(b1-4)GlcNAc(b1-3)[Neu5Ac(a2-3)Gal(b1-4)GlcNAc(b1-3)Gal(b1-4)GlcNAc(b1-6)]GalNAc
Outline: as §1

[26] = biological target: Neu5Ac(a2-3)Gal(b1-4)GlcNAc(b1-3)Gal(b1-4)GlcNAc(b1-6)[Gal(b1-3)]GalNAc
Outline: as §1

[27] = biological target: Neu5Ac(a2-3)Gal(b1-4)GlcNAc(b1-3)Gal(b1-4)[Fuc(a1-3)]GlcNAc
Outline: as §1

[28] = biological target: Neu5Ac(a2-3)Gal(b1-4)GlcNAc(b1-3)GalNAc
Outline: as §1

[29] = biological target: Neu5Ac(a2-3)Gal(b1-4)GlcNAc(b1-3)[Neu5Ac(a2-3)Gal(b1-4)GlcNAc(b1-6)]GalNAc
Outline: as §1

B1: GS13455A-bfa-343-25-343 (Bacteroides fragilis) (protein)
chain: KDEIQIVDQDTSWQMDNKYIEEDIREQLGIDPFTDLVYLGYYGNPYTQLEAINDLVNTTLVGKNELSFKVKVTKPYKEDIKVNLMKEDKLVTDFPEMAEGIPLFPSENCTFEGGVLKAGELETTVKLTLKDVEKLNNLSGYVMAIKLTMEGSHEHLAIARTRSSYFVKLNLSIRLDNIDSSNKKIEGKGFNKEISFKSDIRPDKLGSLNDGNFTANNWYTSNANNYLTIILPEKQSLKGFRLDTNTSPSGSYMLKSCRVMVETPDGNWVNHGVFDRKSMDGIAYISFKKPVECTKVRFENMMAFNGRFSVDVNEVTAFR
[1]
  glycan array binding signal (z-score): 0.492
[2]
  glycan array binding signal (z-score): 0.457
[3]
  glycan array binding signal (z-score): 0.631
[4]
  glycan array binding signal (z-score): -0.522
[5]
  glycan array binding signal (z-score): -0.464
[6]
  glycan array binding signal (z-score): -0.225
[7]
  glycan array binding signal (z-score): 0.077
Neu5Ac(a2-3)Gal(b1-4)Glc
  glycan array binding signal (z-score): 0.051
[8]
  glycan array binding signal (z-score): -0.152
[9]
  glycan array binding signal (z-score): -0.205
[10]
  glycan array binding signal (z-score): -0.237
[11]
  glycan array binding signal (z-score): -0.186
[12]
  glycan array binding signal (z-score): 0.466
[13]
  glycan array binding signal (z-score): -0.186
[14]
  glycan array binding signal (z-score): -0.395
[15]
  glycan array binding signal (z-score): -0.715
[16]
  glycan array binding signal (z-score): -0.056
[17]
  glycan array binding signal (z-score): 0.236
[18]
  glycan array binding signal (z-score): -0.573
[19]
  glycan array binding signal (z-score): 0.34
[20]
  glycan array binding signal (z-score): -0.123
[21]
  glycan array binding signal (z-score): 0.877
[22]
  glycan array binding signal (z-score): -0.592
[23]
  glycan array binding signal (z-score): 0.225
[24]
  glycan array binding signal (z-score): -0.534
[25]
  glycan array binding signal (z-score): 0.259
[26]
  glycan array binding signal (z-score): -0.102
[27]
  glycan array binding signal (z-score): -0.308
[28]
  glycan array binding signal (z-score): -0.51
[29]
  glycan array binding signal (z-score): 1.14
